PubChem BioAssay AID1476 (National Center for Advancing Translational Sciences (NCATS), 2009)
“And” between values parts separate entries of the source, which are not always exact repeats. Equal values may be shown once. Among all 200,000 compounds or so, about 4,500 (2.2%) were called active. The inconclusive results got no clear call from the source; some entries with a clear call stand among them for comparison. Calls follow the shape of the dose curve; as a rule, active = well fitted inhibition curve with a large enough effect; inconclusive = small, poorly fitted or top-dose-only effect, or effect the other way; inactive = flat fitted curve, though single readings scatter. A potency beside an inconclusive call is a rough fit, not a confirmed value.

biological target: Cruzipain (Trypanosoma cruzi) (UniProt P25779); assay: qHTS Assay for Promiscuous and Specific Inhibitors of Cruzain (without detergent); settings: purified cruzain, Z-FR-AMC fluorescence, no detergent; also: nearly all actives have a fitted effect of over 40% in size;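 as to max response, negative = inhibition: plate controls were enzyme without inhibitor for no effect and buffer without enzyme for full effect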
How it was run: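 Purified cruzain at 1.5 nM, pre-incubated 15 min with compound at room temperature in 100 mM sodium acetate pH 5.5, 5 mM DTT, 0.00005% Triton X-100. Reaction started with 2 uM Z-FR-AMC; AMC fluorescence increase over 60 s gives rate.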
Potency is read from the fitted curve at half-maximal effect; tags tell the direction and shape of the fitted curve.

Chain of UniProt P25779 (P25779 whole entry, looked up): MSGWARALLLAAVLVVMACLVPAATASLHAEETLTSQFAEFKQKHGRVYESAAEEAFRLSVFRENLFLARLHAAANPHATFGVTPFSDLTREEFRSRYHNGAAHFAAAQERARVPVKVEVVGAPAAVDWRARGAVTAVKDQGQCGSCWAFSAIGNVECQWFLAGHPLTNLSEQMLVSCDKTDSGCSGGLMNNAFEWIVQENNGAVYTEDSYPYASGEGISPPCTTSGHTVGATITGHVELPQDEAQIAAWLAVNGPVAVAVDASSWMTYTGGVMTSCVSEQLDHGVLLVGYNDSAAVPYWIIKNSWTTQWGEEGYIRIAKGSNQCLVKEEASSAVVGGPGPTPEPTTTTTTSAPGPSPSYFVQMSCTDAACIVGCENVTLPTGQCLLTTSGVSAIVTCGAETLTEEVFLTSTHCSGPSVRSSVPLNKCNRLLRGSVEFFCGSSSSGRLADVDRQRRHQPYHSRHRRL

Structure (SMILES) | Potency | max response, negative = inhibition
CCOC(=O)c1cc(-c2ccc(C)cc2)n(CCC(=O)NC(C)CC)c1C (centres undefined) | inconclusive: 31.6 µM [activator, single point] | –
Cc1cccc(-c2nc3c(cnn3-c3ccccc3)c(=O)n2-c2ccc(Cl)cc2)c1 | inconclusive: 39.8 µM [inhibitor, single point] | –
Cc1ccc(CCNC(=O)C2CCN(S(=O)(=O)c3ccc4c(ccn4C)c3)CC2)cc1 | – | inactive: -10.8%
N/N=C1/c2ccccc2N[C@H]1OC(=O)Nc1ccccc1 | – | inactive: -5.51%
COC(=O)C1OC(=O)C2OC23[C@]2(C)C(OC(C)=O)CC4C(C)(C)C(=O)CC[C@]4(C)C2CC[C@@]13C (some centres undefined) | inconclusive: 39.8 µM [activator, single point] | –
COc1ccc(NS(=O)(=O)c2cc(NC(=O)c3ccco3)ccc2N2CCCCC2)cc1 | inconclusive: 31.6 µM [inhibitor, single point] | –
Cn1c(=O)n(C)c2cc(N3CCOCC3)c(NS(=O)(=O)c3cccc(C#N)c3)cc21 | – | inactive: 2.79%
COc1ccc(-c2nc(SCC(=O)N3CCOCC3)n[nH]2)cc1 | inconclusive: 25.1 µM [inhibitor, single point] | –
CCCOc1ccc(C(=O)NC(=S)Nc2nc(C)c(C(=O)N(C)C)s2)cc1 | inconclusive: 39.8 µM [activator, single point] | –
NC[C@@H]1O[C@@H](O[C@H]2[C@H](O)[C@H](O[C@@H]3O[C@H](CO)[C@@H](O)[C@H](N)[C@@H]3O)[C@@H](N)C[C@H]2N)[C@H](N)C[C@@H]1O | – | inactive: -6.17%
COC(=O)NC(=S)Nc1ccc(Oc2ccc(Cl)cc2)c(Cl)c1 | – | inactive: -7.42%
COc1ccc(OC)c2c1sc(=NC(=O)c1cccc(N3C(=O)CCC3=O)c1)n2C | inconclusive: 31.6 µM [activator, single point] | –
CN(C)/C=C(\C=N\OCc1ccc(Cl)cc1Cl)C(=O)Nc1ccc(Cl)c(Cl)c1 | active: 20 µM | –
O=C(NCc1cccc(F)c1)c1ccccc1NC(=O)c1nsc2ccccc12 | inconclusive: 39.8 µM [inhibitor, single point] | –
CC(CCC(=O)O)C1CCC2C3CC[C@H]4CC(O)CC[C@@]4(C)C3C=C[C@]12C (some centres undefined) | inconclusive: 20 µM [activator, single point] | –
CCN=c1scc(-c2ccco2)n1/N=C/c1ccc(O)cc1 | inconclusive: 31.6 µM [inhibitor, single point] | –
CCCC1=Nc2cc(C(=O)N3CCC(C(=O)OCC)CC3)ccc2Sc2ccccc21 | inconclusive: 39.8 µM [activator, single point] | –
CCOC(=O)N1CCC(n2c(SCC(=O)Nc3ccccc3OC)nc3ccccc3c2=O)CC1 | inconclusive: 31.6 µM [activator, single point] | –
Cc1ccc2oc3c(c(=O)c2c1)C(c1ccc(O)cc1)N(c1nc(C)c(C)s1)C3=O (centres undefined) | – | inactive: 6.14%
CC(=O)c1ccc(NC(=O)CSc2nnc(Cc3cccn3C)n2-c2ccc(F)cc2)cc1 | inconclusive: 39.8 µM [activator, single point] | –

Structure (SMILES) | Potency | max response, negative = inhibition
O=S(=O)(/N=C(/Nc1cc(N2CCOCC2)ncn1)c1ccccc1)c1ccccc1 | inconclusive: 15.8 µM [inhibitor, single point] | –
CC1(C)Cc2c(c(N3CCOCC3)nc3sc(-c4ccc(C(=O)O)o4)c(N)c23)CO1 | inconclusive: 39.8 µM [activator, single point] | –
Cc1c(NC(=O)/C(C#N)=C/c2ccc(-c3cccc(Cl)c3)o2)c(=O)n(-c2ccccc2)n1C | inconclusive: 39.8 µM [activator, single point] | –
CCc1ccc(-c2nc(NC(=O)c3ccc(OCC(=O)Nc4ccc(F)cc4)c(OC)c3)sc2C)cc1 | active: 3.98 µM | –
CC(C)c1ccc2oc(-c3cc(N)ccc3O)nc2c1 | inconclusive: 39.8 µM [inhibitor, single point] | –
CCOc1cc(N2CCOCC2)c(OCC)cc1NC(=O)CN1CCc2ccccc2C1 | inconclusive: 25.1 µM [activator, single point] | –
CCOC(=O)c1sc(NC(=O)/C=C/c2cnn(C)c2C)c(C(=O)OCC)c1C | inconclusive: 31.6 µM [activator, single point] | –
CC(=O)NCCNc1ncnc2ccc(-c3ccc4c(c3)OCO4)cc12 | – | inactive: -8.3%
O=C(C1CCCN(S(=O)(=O)c2cccc3nsnc23)C1)N1CCN(c2cccc(Cl)c2)CC1 (centres undefined) | inconclusive: 15.8 µM [inhibitor, partial curve, poor fit] | –
O=C(Nc1ccc(N2CCCC2)cc1)c1ccc([N+](=O)[O-])cc1Cl | active: 10 µM | –
Cc1cc(NC(=O)CCN2C(=O)C3C4CCC(C4)C3C2=O)cc(C)c1Br (centres undefined) | inconclusive: 39.8 µM [activator, single point] | –
Cc1ccc(NC(=O)OCCN2CCN(S(=O)(=O)c3ccc(C)cc3)CCC2=O)cc1 | inconclusive: 39.8 µM [activator, single point] and inconclusive: 44.7 µM [activator, single point] | –
Cc1cc(C(=O)COc2ccc(C#N)cc2)c(C)n1-c1ccc2c(c1)OCO2 | active: 25.1 µM | –
Cc1ccc(S(=O)(=O)NCCC(=O)Nc2ccc(C)c(Cl)c2)cc1C | – | inactive: -0.389%
Cc1ccc(N2CCN(c3ccc(C)cc3)C(CC(=O)O)C2=O)cc1 (centres undefined) | inconclusive: 25.1 µM [inhibitor, single point] | –
Cc1ccc(OCc2nc(-c3ccc(-n4cccc4)cc3)no2)cc1C | active: 25.1 µM | –
CCOC(=O)c1sc2nc(C)cc(C)c2c1N | inconclusive: 0.794 µM [inhibitor, full curve] | –
COc1ccc(OC(=O)c2nc(SCc3ccccc3C)ncc2Cl)cc1 | inconclusive: 20 µM [inhibitor, single point] | –
CCn1nc(C)c(NC(=O)/C=C/c2ccc(OC)c(COc3ccc(Br)cc3)c2)c1C | inconclusive: 12.6 µM [activator, partial curve] | –
